According to US7811992B2, “Anti-infarction molecules” (Stasys Technologies, Inc., priority 2002, dated 2010):
Values joined by “and” are separate entries in the source; they are usually repeats but may differ in a detail not shown here. Equal values may be shown once. Square brackets hold non-standard residues; d marks the D form. Ends that are not written are not given here. Peptide text beside a SMILES is read from it. * marks the point of attachment. Acetyl(1-adamantyl) = O=C(CC12CC3CC(CC(C3)C1)C2)*; Hyp = O=C(O)[C@@H]1C[C@@H](O)CN1; 2Thi = N[C@@H](Cc1cccs1)C(=O)O

Legend:
[1] = test system: cerebral infarction in mouse MCAO model; conditions: for animal died: individual animal in MCAO experiment; for infarct area vs saline treated animals, statistical significance: 1-tailed t-test, p value less than 0.05; for ischemia injury %, Mean / total damage area, Mean: group mean; for total damage area, Total: sum over animals; for % Ischemic Injury: mean of group, mouse MCAO
Description: Table 22. Compared with the vehicle-injected group, the infarct area in the brains of the BK variants is show in Table 22. The BK variants shown in Table 22 are presented in their order of activity. SEQ ID NOs: 58, 61, and 77 were significant to less than a 0.05 p value. The p-values were derived by grouping all saline treated animals shown in Table 28 and comparing to experimental animals shown in Table 23 using a 1-tailed t-test. Any p-value found to be less than 0.05 was deemed to be statistically significant.
A number of the Bradykinin variants were tested in the MCAO mouse model as disclosed in the examples herein.
The numbers designating the columns refer to the animals used in a particular experiment for the designated variant. For example, in certain experiments there were 9 parallel animals undergoing occlusion and subsequent FPA variant injection. The infarct area in each section was determined with a computer-assisted image analysis system, consisting of a Power Macintosh computer equipped with a Quick Capture frame grabber card, Hitachi CCD camera mounted on a camera stand. NIH Image Analysis Software, v. 1.55 was used. The images were captured and the total area of infarct was determined over the sections. A single operator blinded to treatment status performed all measurements. Summing the infarct volumes of the sections calculated the total infarct volume. The results are expressed as the mean±standard deviation (SD).

[2] = test system: cerebral infarction in mouse MCAO model; assay: Mouse middle cerebral artery occlusion (MCAO) model, Example 1: 1-hr occlusion, TTC infarction volume and motor behavior at 24 hrs; type: in vivo, C57 mouse; conditions: for % infarction in ipsilateral hemisphere, group mean: IV-injection, 250 μg/mouse of FPA-h or its molar equivalent
[3] = test system: cerebral infarction in mouse MCAO model; assay: Mouse MCAO model, FPA and C-terminal fragments of FPAw (Example 2), infarct volume by TTC; type: in vivo, C57BL/6 mouse; conditions: for Percent reduction in Infarct volume: 10 mg/kg i.v. at end of 1 h ischemia, 24 h reperfusion

## N=C(N)NCCC[C@H](NC(=O)[C@H](Cc1cccs1)NC(=O)[C@@H](Cc1ccccc1)NC(=O)[C@H](CO)NC(=O)[C@H](Cc1cccs1)NC(=O)CNC(=O)[C@@H]1CCCN1C(=O)[C@@H]1CCCN1C(=O)[C@@H](N)CCCNC(=N)N)C(=O)O [VP045] (H-RPPG[2Thi]S[dF][2Thi]R-OH)
[1]
  animal died: died

## GEFLAEGGGVR [C-terminal fragment of woodchuck FPA, leucine position 4]
[2]
  % infarction in ipsilateral hemisphere, group mean: 21.2%
[3]; listed as C-terminal (L) FPAw
  Percent reduction in Infarct volume: 67%
[3]; listed as C-terminus (L) of FPAw
  Percent reduction in Infarct volume: 67%
[3]; 10 mg/kg, group statistics
  infarct volume, Maximum: 39.42 mm^3
  infarct volume, Mean: 21.81 mm^3
  infarct volume, Median: 22.58 mm^3
  infarct volume, Minimum: 2.670 mm^3

## Lys-Arg-Pro-Pro-Gly-Phe-Ser-Pro-Leu (KRPPGFSPL) [Lys-(Des-Arg9, Leu8)-Bradykinin]
[1]
  infarct area vs saline treated animals, statistical significance: significant

## VP044/010 (RPPGFSPF)
[1]
  ischemia injury %, Mean: 13.2%
  total damage area, Mean: 8.7
  total damage area, Total: 43.5

## VP060 (RPPGFSP)
[1]
  ischemia injury %, Mean: 18.1%
  total damage area, Mean: 13.4
  % Ischemic Injury: 18.1%
  total damage area, Total: 67.1

## VP044 (RPPGFSPF)
[1]
  % Ischemic Injury: 13.2%

## RPPGFSP [Bradykinin (1-7)]
[1]
  infarct area vs saline treated animals, statistical significance: significant

## ADTDK GEFLAEGGGVR (ADTDKGEFLAEGGGVR) [FPA(L)-w, synthesized woodchuck Fibrinopeptide A with L in the 9th position]
[2]
  % infarction in ipsilateral hemisphere, group mean: 48.2%

## N=C(N)NCCC[C@H](NC(=O)[C@H](Cc1cccs1)NC(=O)[C@@H](Cc1ccccc1)NC(=O)[C@H](CO)NC(=O)[C@H](Cc1cccs1)NC(=O)CNC(=O)[C@@H]1C[C@@H](O)CN1C(=O)[C@@H]1CCCN1C(=O)[C@H](CCCNC(=N)N)NC(=O)[C@@H](CCCNC(=N)N)NC(=O)CC12CC3CC(CC(C3)C1)C2)C(=O)O [VP046] ({Acetyl(1-adamantyl)}-[dR]RP[Hyp]G[2Thi]S[dF][2Thi]R-OH)
[1]
  animal died: died

## Arg-Pro-Pro-Giy-Phe-SeF-Pro-Phe (RPPGFSPF) [Des-Arg^9] Bradykinin]
[1]
  infarct area vs saline treated animals, statistical significance: significant
[2]; 0.005 mg/kg
  anti-infarction effect: worked
[2]; listed as daBK
  % infarction in ipsilateral hemisphere, group mean: 17%

## ADSGE GDFLAEGGGVR (ADSGEGDFLAEGGGVR) [FPA-h, synthesized human Fibrinopeptide-A]
[2]; 10 μg/kg
  reduction in infarction size: statistically significant reduction in infarction size
[2]; IV dose 15.625 ug/a, % of ipsilateral hemisphere, one animal per row, listed as FPA
  % Infarction Volume: 21.9% and 28.9%
[2]; dose of 10 μg/ml for all test materials
  infarction size, each cell one mouse: 20.76 mm^3 and 53.72 mm^3
[2]; pooled groups (FPA-w I+L; daBK+BK; C-term I+L; FPA-h from previous table)
  % infarction in ipsilateral hemisphere, Combined Groups, mean: 19.4%
[2]; synthesized peptides in the mouse-MCAO model, Tables 10-12
  effective as an anti-infarction molecule: effective
[3]; FPA 0.625 mg/kg
  infarct volume, 25% Percentile: 26.61
  infarct volume, 75% Percentile: 51.40
  infarct volume, Maximum: 65.19
  infarct volume, Mean: 39.91
  infarct volume, Median: 41.92
  infarct volume, Minimum: 14.23
[3]; FPA 2.5 mg/kg
  infarct volume, 25% Percentile: 16.08
  infarct volume, 75% Percentile: 50.02
  infarct volume, Maximum: 58.31
  infarct volume, Mean: 28.26
  infarct volume, Median: 25.56
  infarct volume, Minimum: 5.180
[3]; FPA 10 mg/kg
  infarct volume, 25% Percentile: 8.580
  infarct volume, 75% Percentile: 59.32
  infarct volume, Maximum: 91.58
  infarct volume, Mean: 35.27
  infarct volume, Median: 24.80
  infarct volume, Minimum: 5.220

## VP064 (XRPXGXSXXR; D-residues; non-natural residues)
[1]
  % Ischemic Injury: 34.2%
